# Values marked as one replicate rest on one cluster of the flow cell; about a third of the high ones do not repeat.
# Test system: ATP
# Assay: switch fluorescence ratio, 500 uM ATP over buffer (Cy3 cluster intensity, sum of 5 cycles each) (fold (ratio)); higher = stronger signal-on switching upon ATP binding; sequences stand for … in TCGTCGGCAGCGTCAGATGTGTATAAGAGACAGTTTTTTTTTTTTTTTTTTTTTTTTT…TC
# Settings: aptamer strand: ATP DNA aptamer (quencher-CACCTGGGGGAGTATTGCGGAGGAAGG + anchor), 100 nM annealed; ATP concentration: 500 uM; one replicate
# Summary of the method: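 Switching-strand clusters labelled with Cy3 on a modified Illumina MiSeq flow-cell were annealed to 100 nM quencher-labelled ATP aptamer, imaged in selection buffer, and re-imaged after 15 min with 500 uM ATP at 22 °C. This was done over five cycles with NaOH stripping and re-annealing in between. The fluorescence ratio is summed target-cycle over summed buffer-cycle Cy3 intensity per cluster, averaged per switch-domain sequence, excluding clusters outside 100-1000 RFU.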
# 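Further: ATP exposure 15 min at 22 °C before imaging.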
row,Sequence,switch fluorescence ratio
1,CAGGTTTCCA,1.01
2,GACTCAACCT,1.71
3,TTACTTTTAA,0.984
4,TATTTACGGA,1.05
5,GTATTTTAGA,1.05
6,TGTTCAACCA,1
7,CCTCGTATCT,1.07
8,CAATTAGGCA,0.988
9,TCCTCGGGCC,1.37
10,TGCACGGGGC,1.08
11,CAATGGTA,1.05
12,CCGGGGCGGT,1.17
13,ATAAAATGCT,0.989
14,GCTGAAGAGA,0.98
15,TTCACTCGCG,1.03
16,TCAGCTCTGT,0.986
17,ACTTGCTTCG,1.22
18,GCAACCTCCC,3.6
19,GAGATTATTT,1
20,ATTTATCGGT,0.999
21,GTAAAGGAGT,0.963
22,TTGATATAAA,1.01
23,TACGCCAAAT,1.16

row,Sequence,switch fluorescence ratio
1,CTAGCATAGA,1.02
2,CTTTTTGCTC,0.951
3,TGGGGGCCA,0.991
4,TTGAGGATTA,0.963
5,CAAAGGATCT,0.992
6,CCCTACTGGA,1.13
7,GCCGCAGGAA,1.41
8,ACTAGGGT,0.954
9,GGCATTGAAG,1.02
10,AATCATCGCT,1.03
11,CTTCGTTCGT,1.14
12,GCACGAATCA,0.999
13,TACATTATTA,1.01
14,CACAAGAGAC,1.28
15,AAGTTTGCGC,0.975
16,GGTTCCTCAG,1.19
17,ACAGGAGTTG,0.996
18,GTGTGCGGTA,1.01
19,ATTCCCTTCT,1.02
20,AAGTCTTCGG,0.967
21,GACGATATAA,1.18
22,CCAATACCGG,0.985
23,ATGTAAGCGG,1.02

row,Sequence,switch fluorescence ratio
1,GGAGGAGAAA,1.02
2,GTAACACCCT,1.21
3,TGATGGAGAA,0.988
4,ACCACGTGGG,1.02
5,TGATGGTTGA,0.991
6,CTCATCGGTG,1.05
7,ATGGACTGCA,1.08
8,CCAAGAAGG,0.998
9,TGACACCG,1.02
10,TTCTACTAGG,1.02
11,GAGCACAAGG,1.08
12,GATTATTGTT,1.05
13,ATAAATTTTG,1.06
14,GAACAGAATC,0.992
15,TCAAAGCTTC,1.23
16,TCAATTTTCT,0.984
17,AACGGTTGTT,1.01
18,ACAAATTGAA,1.03
19,ATGAGGAAGC,1.05
20,GGGGGACGTG,1.04
21,CGCGAGAGCA,0.994
22,AAGAGTTAGC,1.15
23,AGGTACTACG,1.05

row,Sequence,switch fluorescence ratio
1,AGGTTCGGGT,0.949
2,CCGCGCGAAT,1.93
3,GGACGAGACT,1.1
4,AGGTACGCAG,1
5,TACATTGTG,0.967
6,TCAGGGAGCC,0.996
7,AACCTAGGGG,1.06
8,TTTATAGAC,0.979
9,CATTGTGTCC,0.964
10,TGAGTACTGG,1.01
11,CGACTTCGCA,4.57
12,TGAGGGAAGC,1.28
13,CATAAATTT,0.974
14,TACAGGATCA,1.03
15,ACGTATAAGT,1.05
16,ACCATCATGT,0.988
17,TTCTGAAGAT,2.17
18,CATGTGAGAC,1.08
19,AGGATTCTGT,0.993
20,AGAAGCAACC,1.86
21,GACACGAATG,0.904
22,TGTTCATGGG,1.01
23,ATATCAGGGA,0.997

row,Sequence,switch fluorescence ratio
1,ATAGCTGTTG,1.01
2,GTGTACCTTA,1.03
3,CTGGGCTTCC,2.33
4,GTGGGGACGT,0.964
5,TATTGGATAC,1.17
6,CCGAATCACA,1.32
7,TTTGTCTTAT,0.974
8,GAAGGATTGA,0.986
9,GGTTGATCAG,0.993
10,TATTATTAGT,1.04
11,TAGGCCGGAT,1.13
12,ACCTTTTCTC,1.18
13,AGGCGGGAT,1.02
14,CACTTCGAG,0.994
15,TCCAGCAAAG,1.84
16,TGACCTGCCG,0.966
17,CTGGGATGTA,1.01
18,ATTGCTAGTC,0.933
19,CATAGAACTT,0.97
20,TGAATAATAA,0.956
21,CCTGTAGCTG,1.36
22,GATTTCGGAA,0.923
23,CCGTCGTGTA,1.02

row,Sequence,switch fluorescence ratio
1,CCTCGTGAAA,1.13
2,AAAAAGCCGG,0.999
3,TCCGGCAACT,1.89
4,TGTTTGCTCC,1.01
5,TTCATGTTAG,1.02
6,ATGAGCGTT,0.993
7,GGATCGCTGG,1.03
8,TTGTATACT,1.03
9,GTATCTAGCT,0.944
10,TATCATAGGC,1.05
11,GCCGTCCGAG,1.01
12,AGCACCTTTG,1.06
13,TGCATCTTTG,1.01
14,CGCTGGAGG,0.99
15,TACAAACCGC,1.16
16,ATATTGGAAC,0.957
17,ACCTGGCAGC,1.06
18,CATGATCGGT,0.962
19,CCGCGCTTGG,1.79
20,TCTAACGCA,1.95
21,CAGATCGGAA,1.08
22,GGTTCAGAGT,1.01
23,CGTGGAAGAG,1.01

row,Sequence,switch fluorescence ratio
1,ATATGTTAAT,0.98
2,GGGCAAAATA,1.02
3,TCCGTCCGAG,1.88
4,ATCAGTAGTG,0.982
5,CTACGTTCGG,0.991
6,AAACAGTGCT,0.979
7,CGTAGACTGG,1
8,AGTCAGACTT,0.988
9,CCGCTGGAGC,1.68
10,CCTCAGAATG,1.34
11,GGTGATTCAG,1.01
12,CGGTCCGGCC,1.02
13,CCGTGAATCC,3.75
14,ACCACTTTAG,0.941
15,CAGCATGCAT,0.994
16,TTCACAGTTC,1.06
17,CTTGGTTAGA,1
18,TAGGTATTGC,1.06
19,CACCAGACTG,1.06

# Source: the supplement of paper PMC10126150
